Laboratory results from PMC4336329 (PLoS ONE, 2015).
In all, about 310,000 compounds went through this assay and about 2,200 (0.71%) showed an effect of 50% or more. The effect is printed as a negative number. Some of the results follow.

target: human ether-à-go-go-related gene (hERG) potassium channel (human, UniProt Q12809); assay: primary screen, population patch clamp on CHO cells stably expressing hERG
Sequence (Q12809 whole entry, looked up): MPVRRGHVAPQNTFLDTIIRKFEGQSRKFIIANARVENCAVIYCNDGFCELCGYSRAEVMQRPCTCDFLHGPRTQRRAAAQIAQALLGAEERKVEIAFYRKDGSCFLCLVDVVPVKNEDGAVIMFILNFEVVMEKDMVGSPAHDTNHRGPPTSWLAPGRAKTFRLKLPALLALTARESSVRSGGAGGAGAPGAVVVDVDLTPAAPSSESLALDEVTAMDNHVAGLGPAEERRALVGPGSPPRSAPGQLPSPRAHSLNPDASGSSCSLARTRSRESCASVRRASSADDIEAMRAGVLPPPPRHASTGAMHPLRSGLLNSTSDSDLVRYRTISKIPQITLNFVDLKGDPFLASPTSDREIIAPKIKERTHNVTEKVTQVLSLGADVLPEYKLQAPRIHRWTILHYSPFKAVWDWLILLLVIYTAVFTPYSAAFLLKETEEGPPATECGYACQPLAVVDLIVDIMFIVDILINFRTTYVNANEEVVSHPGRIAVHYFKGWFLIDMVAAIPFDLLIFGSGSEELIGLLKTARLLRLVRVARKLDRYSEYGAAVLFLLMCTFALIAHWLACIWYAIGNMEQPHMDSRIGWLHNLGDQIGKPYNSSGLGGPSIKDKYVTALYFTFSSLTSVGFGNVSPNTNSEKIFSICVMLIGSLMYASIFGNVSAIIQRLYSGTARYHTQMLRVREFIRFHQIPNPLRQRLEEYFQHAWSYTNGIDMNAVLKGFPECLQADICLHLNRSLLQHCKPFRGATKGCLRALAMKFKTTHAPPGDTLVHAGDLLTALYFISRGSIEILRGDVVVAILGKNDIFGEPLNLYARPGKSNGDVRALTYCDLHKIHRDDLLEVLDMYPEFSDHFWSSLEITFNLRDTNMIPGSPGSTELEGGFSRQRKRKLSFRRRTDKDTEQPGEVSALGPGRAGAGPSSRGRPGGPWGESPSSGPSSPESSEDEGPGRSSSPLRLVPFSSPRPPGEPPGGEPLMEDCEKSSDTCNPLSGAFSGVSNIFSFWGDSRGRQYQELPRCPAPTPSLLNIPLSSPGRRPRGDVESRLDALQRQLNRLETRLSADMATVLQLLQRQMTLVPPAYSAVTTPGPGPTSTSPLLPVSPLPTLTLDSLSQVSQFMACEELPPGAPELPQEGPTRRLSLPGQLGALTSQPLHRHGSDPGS

SMILES | hERG current change (%, negative = inhibition) at 1uM
Cc1cccc(N(C)S(=O)(=O)c2ccc(-c3cc(C)no3)s2)c1 | 10.7%
Cc1ccc(N/C(N)=N/c2nc(CSc3ccccn3)cc(=O)[nH]2)c(C)c1 | 9.97%
COc1ccc(CCNC(=O)CCNC(=O)c2ccco2)cc1OC | 15.5%
Cc1ccc(Nc2cc(C)c3ccc(O)cc3n2)cc1C.Cl | 8.28%
Cc1ccc(NS(=O)(=O)c2ccc(C)c(C(=O)NCC(c3ccccc3)N(C)C)c2)cc1 (stereo not drawn) | -0.441%
CC(=O)c1ccc(NC(=S)Nc2ccc(Br)c(Cl)c2)cc1 | 13.3%
COc1cc(S(=O)(=O)NCc2ccncc2)ccc1Br | 10.8%
COc1cccc(NC(=O)NCCC2=CCCCC2)c1 | -0.725%
CCCCNC(=O)CNC(=O)c1nn(-c2ccc(OC)cc2)c(=O)c2ccccc12 | 7.19%
O=C(COC(=O)c1ccc(Cl)c(Cl)c1)Nc1cccnc1Cl | -0.005%
O=C(C1CCC(=O)N(C2CC2)C1)N1CCN(c2cccc(Cl)c2)CC1 (stereo not drawn) | 8.4%
CCCc1nc2nc(C)c(NS(=O)(=O)c3ccc(C4CCCCC4)cc3)c(=O)n2[nH]1 | 12%
O=C(CN1CCN(Cc2ccccc2)CC1)NCCc1ccccc1 | 12.5%
COc1ccc(/C=C/C(=O)OC2CCCCC2CN(C)C)cc1.Cl (stereo not drawn) | 5.67%
C/C(CC(=O)Nc1ccc([N+](=O)[O-])cc1)=N\NC(=O)c1ccccc1O | 12%
CCOc1ccc(N(Cc2cc3ccc(C)cc3[nH]c2=O)C(=O)COC)cc1 | 2.08%
Cc1ccccc1NC(=S)NC(C)C(c1cccs1)N1CCOCC1 (stereo not drawn) | 11.4%
CC1CN(CC(=O)N2CCc3[nH]c4ccccc4c3C2)CC(C)O1 (stereo not drawn) | 8.25%
CCN(CC)C(=O)CSc1nc2cc3c(cc2c(=O)n1CCCCCC(=O)NCc1ccc(OC)cc1)OCO3 | 11.2%
Cc1ccc(C)c(NC(=O)CSc2nnc(CSc3nc(C)cc(C)n3)n2Cc2ccco2)c1 | 1.82%
Cc1cccc(C)c1-n1cccc1/C=C1\SC(=S)N(c2cccc(C(=O)O)c2)C1=O | 21.2%
CN1CCN(c2nc(-c3ccccc3)cc(C(F)(F)F)n2)CC1 | 1.65%

SMILES | hERG current change (%, negative = inhibition) at 1uM
CCN(CC(=O)NCC(=O)Nc1ccc(Br)cc1C)Cc1ccccc1 | 9.05%
O=C1c2ccccc2C(=O)N1CCCCSc1nc2ccccc2o1 | 5.52%
O=C1CN(C(=O)c2ccc(Cl)c(S(=O)(=O)N3CCc4ccccc43)c2)c2ccccc2N1 | -2.69%
O=C(O)c1cccc2c1/C(=N/Nc1ccc([N+](=O)[O-])cc1[N+](=O)[O-])c1ccccc1-2 | 17.2%
OCC1(CCc2ccccc2)CCN(Cc2cc(Cl)ccc2O)CC1 | -5.01%
Cc1ccc(NC(=O)N2CCc3ccccc32)cc1 | 10.6%
COc1ccccc1C1c2[nH]c3ccccc3c2C[C@H]2C(=O)N(C3CCN(Cc4ccccc4)CC3)CC(=O)N12 (stereo partly drawn) | 1.62%
COc1ccc2[nH]c(=O)c(C3c4cc(OC)c(OC)cc4CCN3C(=O)c3ccco3)cc2c1 (stereo not drawn) | 7.6%
O=C(NCc1ccc(Cl)cc1)C1CCCN(C(=O)c2ccc(Cl)cc2)C1 (stereo not drawn) | 0.75%
O=S(=O)(Nc1ncccn1)c1ccc(NC(=S)Nc2cccc(Cl)c2)cc1 | 13.2%
Cc1cc(O)cc(=O)n1C | 8.9%
Cc1nnc(SC(C)C(=O)NCC2CCCO2)n1-c1ccccc1 (stereo not drawn) | 3.76%
COc1ccc(C(=O)N2CCOC2CNC(=O)C(=O)NCc2ccccc2Cl)cc1 (stereo not drawn) | 11.8%
Br.COc1ccc(C(=O)Cn2c(NCCCO)nc3ccccc32)cc1OC | 8.36%
CN(C)CC(=O)Nc1ccc(Oc2ccc(Cl)cc2)cc1.Cl | 13.9%
O=C(CCN1C(=O)/C(=C/c2ccc(Cl)cc2)SC1=S)NCCCn1ccnc1 | 13.2%
Cc1nnc(N(Cc2ccccc2)C(=O)c2cnccn2)s1 | 13.6%
C=CCn1c(SCc2ccc(Cl)cc2)nc2cc(C(=O)N3CCC(C(N)=O)CC3)ccc2c1=O | 8.65%
O=[N+]([O-])c1ccc(Sc2ccccn2)nc1 | 13.3%
COc1ccccc1CN1CC(C(=O)N(C)CCCn2nc(C)cc2C)CCC1=O (stereo not drawn) | 3.08%
Cc1ccc(S(=O)(=O)N2CCOCC2)cc1NC(=O)c1cc2c(s1)CCC2 | -1.73%
COc1cccc(Nc2c3c(nc4c(-c5ccccc5)c(C)nn24)CCC3)c1 | -5.67%

SMILES | hERG current change (%, negative = inhibition) at 1uM
CCc1c(O)nc(SCC(=O)Nc2cc(C)on2)n(-c2ccccc2)c1=O | 8.66%
N#CCC(=O)Nc1sc2c(c1C(N)=O)CCCC2 | 5.9%
O=C(NCCc1ccc(F)cc1)Nc1ccc([N+](=O)[O-])cc1 | 6.86%
N#Cc1cccc(C(=O)OCC(=O)c2ccc3c(c2)NC(=O)CO3)c1 | 10.8%
Cc1c(CC(=O)O)c(=O)oc2cc(OCc3ccc(Br)cc3)ccc12 | 13.3%
CN(C)S(=O)(=O)c1cccc(NC(=O)COC(=O)c2ccc3c(c2)OCO3)c1 | 4.46%
COc1ccc(/C=C/C(=O)Nc2ccccc2C(F)(F)F)cc1OC | 2.69%
Cc1cc(C)cc(NC(=O)CN2CCN(c3ncccn3)CC2)c1 | 0.335%
O=C(NCc1ccccc1Cl)c1ccc(S(=O)(=O)N2CCCC2)cc1 | 9.13%
COc1ccc(C(=O)Nc2sc3c(c2C(=O)NCc2ccco2)CCCC3)cc1OC | -7.05%
Cc1cc(N2C(=O)CC(N3CCC(n4c(=O)[nH]c5ccccc54)CC3)C2=O)no1 (stereo not drawn) | 3.9%
COc1ccc(C(=O)NCCn2ccc3ccccc32)cc1OC | 9.32%
Cc1ccnc(NS(=O)(=O)c2ccc3c(c2)CCO3)c1 | 14.4%
CN1CCN(c2ccccc2NC(=O)c2ccc(N3CCCC3)c([N+](=O)[O-])c2)CC1 | 6.78%
COc1ccc(/C=C/CN2CCCC(CO)(Cc3cccc(Cl)c3)C2)cc1 (stereo not drawn) | 3.25%
Cc1cc(NC(=O)CCC(=O)N(CCC(C)C)CC(=O)NCC2CCCO2)no1 (stereo not drawn) | 11.3%
Cc1ccc(CN(C(=O)c2ccccc2[N+](=O)[O-])C2CCS(=O)(=O)C2)o1 (stereo not drawn) | 8.92%
COc1cc(-n2nc(C)c3c2OC(N)=C(C#N)C3c2ccccc2)c(Cl)c(Br)c1O (stereo not drawn) | 1.08%
O=C(Cc1ccc(Br)cc1)NCCc1ccccc1 | 19.3%
CN(C)P(=NC(=S)c1cccn1C)(N(C)C)N(C)C | 14.6%
O=C(O)CC(NC(=O)C1CCCCC1)c1cc([N+](=O)[O-])ccc1Cl (stereo not drawn) | 7.05%
Cc1ccc(NC(=O)CSc2ncccn2)cc1S(=O)(=O)N1CCCCC1 | -5.01%

SMILES | hERG current change (%, negative = inhibition) at 1uM
CCOC(=O)CC1ON(C)C(=O)N1c1ccc([N+](=O)[O-])cc1 (stereo not drawn) | 1.71%
COc1ccc(CNC(=O)C2CCCN2S(=O)(=O)c2ccc(F)cc2)cc1 (stereo not drawn) | 6.31%
CC(c1ccccc1)n1c(-c2ccccc2F)n[nH]c1=S (stereo not drawn) | 5.23%
COc1ccc(/C=N/NC(=S)SC)cc1OC | 6.55%
COC(=O)Cn1c(=O)c2c(n(Cc3ccccc3)c1=O)N/C(=C/c1ccc(Br)cc1)C2=O | 7.65%
COCCn1c(C(C)C)nc2oc3ccccc3c(=O)c2c1=O | -0.841%
Cc1ccc(S(=O)(=O)Nc2ccnc(-c3cccnc3)n2)cc1 | 9.13%
COc1ccc(-c2nc(SCC(=O)N3CCCC3)n[nH]2)cc1 | 12.5%
O=S(=O)(NC(=S)Nc1ccccc1)c1ccc(F)cc1 | 16%
CCOc1ccc(C2CC(c3cccc(OC)c3)n3nc(N)nc3N2)cc1 (stereo not drawn) | 9.2%
O=C(Nc1ccc(Cc2ccncc2)cc1)c1ccc(Br)o1 | 12.9%
CN(C)/C=C(\C(=O)c1ccc(F)cc1F)c1nnnn1-c1ccccc1 | 15%
CCCCn1c(-c2cccs2)nc2oc3ccccc3c(=O)c2c1=O | 8.04%
CCn1cc(C2=NC(CCSC)CO2)c2ccccc21 (stereo not drawn) | 12%
CCOCC(=O)Nc1nc(C)cc(C)n1 | 18.8%
O=C(Cn1nnc(-c2cccc(C(F)(F)F)c2)n1)NNS(=O)(=O)c1cccc(C(F)(F)F)c1 | 13.9%
CC(CCc1ccc(O)cc1)NCc1ccc(Cl)cc1Cl (stereo not drawn) | -10.9%
COc1ccc(/C=N/NC(=O)CC2N=C(Cc3ccccc3)NNC2=O)cc1OC (stereo not drawn) | 8.59%
COc1ccc(C(=O)Nc2cccc(-c3nnc(-c4ccco4)o3)c2)cc1 | 2.28%
CCOc1ccc(C(=O)C(C)OC(=O)Cn2cnc3c2c(=O)n(C)c(=O)n3C)cc1 (stereo not drawn) | 3.29%
Cc1ccc(NC(=S)/N=C(\N)Nc2nc(C)c3cc(C)ccc3n2)c(C)c1 | 3.57%
